The values below come from PubChem BioAssay AID1508624 (National Center for Advancing Translational Sciences (NCATS), 2021).

Several values for one entry are separate records, joined by “and”; a condition that tells them apart may be missing. Equal entries are not always repeated. Screen size: about 48,000 compounds; about 120 (0.25%) were called active. Another 4% or so got no clear call; they are omitted. Calls follow the shape of the dose curve; as a rule, active = well fitted activation curve with a large enough effect; inconclusive = small, poorly fitted or top-dose-only effect, or another doubt; inactive = no such curve, though single readings can be large or run the other way. Some of the results follow.

This assay in a line: Primary qHTS for Identification of Small Molecule Activators of Huntingtin-Antisense Promoter Activity. Also: nearly all actives have a fitted effect of over 55% in size. The following applies: HEK293 HTT-AS promoter firefly luciferase reporter, 24 h; at 57.5 µM (top of the series) unless noted. An outline of the steps: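 Quantitative HTS used concentration series of up to 57.5 uM final on HEK293 luciferase reporter cells, 24 h at 37 degrees C. Readout was Dual-Glo firefly luminescence.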
As for `COc1ccc2c(c1OC)CN1CCc3cc4c(cc3C1C2)OCO4` (stereo not given), the activity change, positive = activation is inactive: -13% and inactive: -1.65%.

With `CN1CCC(N(Cc2ccccc2)c2ccccc2)CC1`, the activity change, positive = activation is inactive: -16.1%.

For the compound `COc1ccc(OC)c(CCNCc2c(C(=O)O)c(C)n(Cc3ccc(F)cc3Cl)c2C)c1`, the activity change, positive = activation is inactive: -12% [at 57.5 µM, percent change from vehicle, -100% = no light].

For the compound `Cc1cc(OCC(=O)N2CCN(CCc3ccncc3)CC2)cc(C)c1Cl`, the activity change, positive = activation is inactive: -18.5%.

`COc1ccc(NC(=O)CCc2nc(C3=CCN(Cc4cccc(C)c4)CC3)no2)c(OC)c1`: the activity change, positive = activation was inactive: 3.73% [at 57.5 µM, percent change from vehicle, -100% = no light].

Consider `CN[C@@H]1Cc2cccc3[nH]c(=O)n(c23)C1`, for which the activity change, positive = activation was inactive: -9.2%.

Regarding `O=C1NCN(c2ccccc2)C12CCN(CCCOc1ccc(F)cc1)CC2`, the activity change, positive = activation is inactive: -12.5%.

As to `CCCCCCCCCCCCCCCC[N+](C)(C)C`, the activity change, positive = activation was inactive: -36.5%.

In the case of `Cc1cccc(-n2c(/C=C\c3cccc(Br)c3)nc3ccccc3c2=O)c1`, the activity change, positive = activation is inactive: -25%.

`CN1C[C@H](CNC(=O)OCc2ccccc2)C[C@@H]2c3cccc4c3c(cn4C)C[C@H]21`: the activity change, positive = activation was inactive: -21.3%.

For the compound `Cc1ccc(Cn2cccc(C(=O)Nc3ccc(C)c(Cl)c3)c2=O)cc1`, the activity change, positive = activation was inactive: -16%.

With `COC[C@H]1OC(=O)c2coc3c2[C@@]1(C)C1=C(C3=O)[C@@H]2CC[C@H](O)[C@@]2(C)C[C@@H]1OC(C)=O`, the activity change, positive = activation is inactive: -39.1%.

Turning to `O=[N+]([O-])c1ncc[nH]1`, the activity change, positive = activation is inactive: -15.8%.

On to `COc1ccc(C2CC(=O)Oc3c2c(=O)oc2ccccc32)c(OC)c1OC` (stereo not given), for which the activity change, positive = activation is inactive: -11.9%.

In the case of `CCN[C@H](C)Cc1cccc(C(F)(F)F)c1`, the activity change, positive = activation is inactive: -13.2% [at 116 µM].

In the case of `CCCCCCCCCC(=O)O[C@H]1CC[C@H]2[C@@H]3CCC4=CC(=O)CC[C@@H]4[C@H]3CC[C@]12C`, the activity change, positive = activation is inactive: 1.43%.

Turning to `Cc1ccc(CNC(=O)CCCn2c(=O)c3sccc3n(CC(=O)Nc3c(C)cccc3C)c2=O)cc1`, the activity change, positive = activation was inactive: -17.1%.

Regarding `CC#C[C@]1(O)CC[C@H]2[C@@H]3C[C@H](C)C4=CC(=O)CC[C@]4(C)[C@H]3CC[C@@]21C`, the activity change, positive = activation is inactive: -27.7%.

As for `CC(C)c1cccc(C(C)C)c1O`, the activity change, positive = activation was inactive: -4.87% and inactive: -14.2%.

Regarding `Cc1nc(-c2ccc(-c3ccc(C(=O)N4CCc5cc6c(cc54)C4(CCN(C)CC4)CO6)cc3)c(C)c2)no1`, the activity change, positive = activation is inactive: -14%.

For the compound `CC(C)C(Br)C(=O)NC(N)=O` (stereo not given), the activity change, positive = activation was inactive: -1.25%.

Turning to `COP(=O)(OC)OC=C(Cl)Cl`, the activity change, positive = activation was inactive: 4.7%.

Consider `C[C@@H]1O[C@@H](O[C@@H]2C=C3CC[C@@H]4[C@@H](CC[C@]5(C)[C@H](c6ccc(=O)oc6)CC[C@@]45O)[C@@]3(C)CC2)[C@H](O)[C@H](O)[C@H]1O`, for which the activity change, positive = activation is inactive: -50%.

As for `N#CC(C#N)=Cc1ccc(O)c(O)c1`, the activity change, positive = activation was inactive: 12.8%.

For the compound `COc1ccc(C)cc1NC(=O)c1cccn(Cc2ccccc2Cl)c1=O`, the activity change, positive = activation was inactive: -18.4%.

For `Cc1ccc(-n2c(/C=C/c3cc(Br)cs3)nc3ccccc3c2=O)cc1C`, the activity change, positive = activation is inactive: 0.19% [at 57.5 µM, percent change from vehicle, -100% = no light].

`Oc1ccc2c3c1O[C@H]1[C@@H](O)C=C[C@H]4[C@@H](C2)NCC[C@@]341`: the activity change, positive = activation was inactive: -16.2% [at 116 µM].

As for `C#C[C@]1(O)C=C[C@@H]2[C@@H]3CCC4=CC(=O)CC[C@@H]4[C@H]3CC[C@@]21CC`, the activity change, positive = activation was inactive: -6.81%.

With `CCNc1nc(Cl)nc(NCC)n1`, the activity change, positive = activation was inactive: -11%.

As for `O=C(COc1ccccc1[N+](=O)[O-])N1CCN(CCc2ccncc2)CC1`, the activity change, positive = activation was inactive: -19%.

As for `Cc1cccc(C)c1NC(=O)CN1CCCC1=O`, the activity change, positive = activation was inactive: -9.44% and inactive: -1.77%.

Consider `Cc1cccc(C)c1OCC(=O)Nc1ccc(Cl)cc1C(=O)c1ccccc1`, for which the activity change, positive = activation is inactive: -19% [at 57.5 µM, percent change from vehicle, -100% = no light].

Consider `C=CCC1=C(C)C(OC(=O)C2C(C=C(C)C)C2(C)C)CC1=O` (stereo not given), for which the activity change, positive = activation is inactive: -19.6% [at 116 µM].

Turning to `C[C@@H]1CC2=CC(=O)CC[C@@H]2[C@H]2CC[C@@]3(C)[C@@H](CC[C@]3(C)O)[C@@H]21`, the activity change, positive = activation is inactive: -23%.

Take `CN1CCC(O)(c2ccc(F)cc2)C(C(=O)c2ccc(F)cc2)C1` (stereo not given): the activity change, positive = activation was inactive: -5.96%.

Turning to `Cn1cc(C2=C(c3cn(C4CCN(Cc5ccccn5)CC4)c4ccccc34)C(=O)NC2=O)c2ccccc21`, the activity change, positive = activation was inactive: -21.5% and inactive: -11.5%.

Take `Cn1c(=O)n(C)c2cc(CNCCc3ccccc3F)ccc21`: the activity change, positive = activation is inactive: -8.97% [at 57.5 µM, percent change from vehicle, -100% = no light].

`O=c1n(Cl)c(=O)n(Cl)c(=O)n1Cl`: the activity change, positive = activation is inactive: 1.95%.

As for `Cc1ccc(-n2c(/C=C/c3ccccc3)nc3ccccc3c2=O)cc1Cl`, the activity change, positive = activation was inactive: -6.87%.

For the compound `C=CCN1CC[C@]23c4c5ccc(O)c4O[C@H]2C(=O)CC[C@@]3(O)[C@H]1C5`, the activity change, positive = activation is inactive: -1.73%.

Regarding `O=C1CC(c2ccccc2Br)c2c(c3ccccc3oc2=O)O1` (stereo not given), the activity change, positive = activation is inactive: -4.8% [at 57.5 µM, percent change from vehicle, -100% = no light].

For the compound `OCCOc1ccccc1`, the activity change, positive = activation was inactive: 0.0498%.

On to `CC(CC(C#N)(c1ccccc1)c1ccccc1)N(C)C` (stereo not given), for which the activity change, positive = activation is inactive: -20% [at 116 µM].

On to `CC[C@H]1C=CC=CC[C@@H](C)[C@H](O)[C@@](C)(O)C(=O)[C@@H](C)[C@H](O)[C@@H](C)C(=O)[C@@H](C)[C@H](O)[C@@H](C)C=CC(=O)O[C@@H]2[C@@H](C)[C@H](CC1)O[C@]1(CC[C@H](C)[C@H](C[C@@H](C)O)O1)[C@H]2C`, for which the activity change, positive = activation was inactive: -77.9%.

With `CC1(N2CCC(n3c([C@@H]4CCCNC4)nc4ccccc43)CC2)CCCCCCC1`, the activity change, positive = activation is inactive: -17%.

On to `COP(=O)(OC)C(O)C(Cl)(Cl)Cl` (stereo not given), for which the activity change, positive = activation was inactive: -7.86%.

Regarding `O=c1c(C2CC(c3ccc(-c4ccc(Br)cc4)cc3)Cc3ccccc32)c(O)sc2ccccc12` (stereo not given), the activity change, positive = activation is inactive: -30.9%.

Take `O=C1C=CC[C@@H]2[C@H]3CCCN4CCC[C@@H](CN12)[C@@H]34`: the activity change, positive = activation is inactive: -78.1%.

Consider `COC(=O)[C@@H](N)CCCN/C(N)=N/[N+](=O)[O-]`, for which the activity change, positive = activation is inactive: -5.44%.

Turning to `Nc1ccc(Cl)cc1`, the activity change, positive = activation was inactive: -3.11% [at 116 µM].

Consider `CC[C@]1(O)CC[C@H]2[C@@H]3CCC4=CCCC[C@@H]4[C@H]3CC[C@@]21C`, for which the activity change, positive = activation was inactive: -17%.

Take `CCC(C(=O)Nc1ccccc1F)N1C(=O)CN=C(c2ccccc2)c2ccccc21` (stereo not given): the activity change, positive = activation is inactive: -27%.

Consider `CCc1ccc(-n2nc(C)c3c2NC(=O)CSC3c2ccc(OC)cc2OC)cc1` (stereo not given), for which the activity change, positive = activation is inactive: -37.3%.

On to `CN[C@@H](C)[C@H](O)c1ccccc1`, for which the activity change, positive = activation was inactive: -4.09%.

In the case of `COc1ccc(Cl)cc1NC(=O)c1sc2nc3c(cc2c1N)N1CCC3CC1`, the activity change, positive = activation was inactive: 12.6% [at 57.5 µM, percent change from vehicle, -100% = no light].

On to `O=S(=O)(O)C(F)(F)C(F)(F)C(F)(F)C(F)(F)C(F)(F)C(F)(F)C(F)(F)C(F)(F)F`, for which the activity change, positive = activation was inactive: -11.3% [at 116 µM].

As to `ClCc1cccc(Cl)c1`, the activity change, positive = activation is inactive: -3.5%.

As for `CCOC(=O)c1ccc(NC(=O)c2cccn(Cc3ccccc3F)c2=O)cc1`, the activity change, positive = activation was inactive: -49.5%.

For `C[C@]12CC[C@@H]3c4ccc(OC(=O)N(CCCl)CCCl)cc4CC[C@H]3[C@@H]1CC[C@@H]2OP(=O)(O)O`, the activity change, positive = activation is inactive: 2.65%.

Take `O=C(NCC1CCOCC1)c1cnc(Nc2ccc(Cl)cc2Cl)nc1C(F)(F)F`: the activity change, positive = activation is inactive: -32.8%.

With `COc1c2c(cc3c1OCO3)CCN(C)C2`, the activity change, positive = activation is inactive: -14.8%.

Take `N#Cc1ccccc1NC(=O)c1cccn(Cc2ccccc2)c1=O`: the activity change, positive = activation is inactive: -21.7% [at 57.5 µM, percent change from vehicle, -100% = no light].

For the compound `COc1ccc(-c2nc(CN3C(=O)CN=C(c4ccccc4Cl)c4cc(Cl)ccc43)c(C)o2)cc1OC`, the activity change, positive = activation was inactive: -42.6%.

`O=C(Cn1cc(C(=O)c2ccccc2)c2ccccc21)Nc1ccc(Br)cc1`: the activity change, positive = activation is inactive: -26.1%.

With `NCC(O)c1ccc(O)cc1` (stereo not given), the activity change, positive = activation is inactive: -6.96%.

Regarding `C[C@](O)(CS(=O)(=O)c1ccc(F)cc1)C(=O)Nc1ccc(C#N)c(C(F)(F)F)c1`, the activity change, positive = activation is inactive: -35.2%.

Consider `N#Cc1nn(-c2c(Cl)cc(C(F)(F)F)cc2Cl)c(N)c1S(=O)C(F)(F)F` (stereo not given), for which the activity change, positive = activation was inactive: -47.9%.

Take `Nc1ccc(Cl)cc1C(=O)c1ccccc1F`: the activity change, positive = activation is inactive: -16.5%.

Take `Cc1cccc(CN2C(=O)CN=C(c3ccccc3)c3cc(Cl)ccc32)c1`: the activity change, positive = activation was inactive: -38.6%.

For the compound `CN(C)CCc1c[nH]c2cccc(O)c12`, the activity change, positive = activation was inactive: -8.4% [at 116 µM].

`CCCc1ccc(OCC(=O)Nc2ccc(Cl)cc2C(=O)c2ccccc2)cc1`: the activity change, positive = activation was inactive: 4.95% [at 57.5 µM, percent change from vehicle, -100% = no light].

Take `Clc1ccccc1N1CCNCC1`: the activity change, positive = activation was inactive: -5.65%.

In the case of `CC(C)(C)C(O)C(Oc1ccc(Cl)cc1)n1cncn1` (stereo not given), the activity change, positive = activation is inactive: -11% [at 116 µM].

Consider `CC(C)c1ccc(NC(=O)CN2C(=O)CN=C(c3ccccc3)c3ccccc32)cc1`, for which the activity change, positive = activation is inactive: -20.9% [at 57.5 µM, percent change from vehicle, -100% = no light].

On to `C[C@]12CC[C@H]3[C@@H](CC=C4C[C@@H](O)CC[C@@]43C)[C@@H]1CC[C@@H]2O`, for which the activity change, positive = activation was inactive: -8.44%.
